Source: PubChem BioAssay AID1458 (National Center for Advancing Translational Sciences (NCATS), 2008)
The campaign covered roughly 210,000 compounds. About 5,900 (2.8%) were called active. The shares of active, inactive and inconclusive entries below differ from those in the screen. The call rests on the fitted dose curve; in most records, active means well fitted activation curve with a large enough effect; inconclusive means small, poorly fitted or top-dose-only effect; inactive means no such curve, though single readings can be large or run the other way. Potencies beside an inconclusive call are fits to weak or partial responses and may not hold up.

assay: qHTS Assay for Enhancers of SMN2 Splice Variant Expression; details: HEK293 SMN2-luciferase splicing reporter, luminescence, 30-36 h; activity change, positive = activation: at 46.1 µM (top of the series); further: nearly all actives have a fitted effect of over 55% in size; on activity change, positive = activation: % of control where 0% means no effect
Procedure, shortened: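 HEK293 cells carry an SMN2 […]–luciferase reporter in which exon 7 inclusion puts luciferase in frame. Cells were plated 10-12 h before compound addition, then incubated 30-36 h at 37C. ONE-Glo luminescence was read; sodium butyrate at 4.5 mM final served as control.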
Potency means the concentration at half of the fitted maximal effect; tags describe the fitted curve by direction and shape.

| SMILES | Potency | activity change, positive = activation |
| --- | --- | --- |
| COc1ccc(NC(=O)Nc2cccc3cccnc23)cc1 | inconclusive: 35.5 µM [activator, single point] |  |
| N=C1c2ccccc2CN1NC(=O)c1ccccc1 | inconclusive: 0.02 µM [activator, full curve, poor fit] |  |
| C[Se]C[C@H](N)C(=O)O | inconclusive: 17.8 µM [activator, single point] |  |
| Nn1c(CSc2nc3ccccc3o2)nnc1CSc1nc2ccccc2o1 | inconclusive: 3.16 µM [activator, partial curve] |  |
| CN1C(=O)C(=Cc2ccccc2OCc2ccc(Cl)cc2)C(=O)N(C)C1=O | inconclusive: 11.2 µM [activator, single point] |  |
| Cc1ccc(-n2c(O)c(/C=N/NC(=O)c3ccncc3)c(=O)[nH]c2=O)cc1C | inconclusive: 0.708 µM [activator, full curve, poor fit] |  |
| CN(C)C(=O)Oc1ccc(-c2cn3cc(C(F)(F)F)ccc3n2)cc1 | inconclusive: 17.8 µM [activator, single point] |  |
| CC(=O)c1ccc(OC(NC(=O)c2ccco2)C(Cl)(Cl)Cl)cc1 (centres undefined) | inconclusive: 0.112 µM [activator, full curve] |  |
| CCCNc1oc(-c2cccc3ccccc23)nc1C#N | inconclusive: 7.94 µM [activator, partial curve] |  |
| O=S(=O)(NCCO)c1cc[c]([Sb])cc1 |  | inactive: -4.48% [at 9.22 µM] |
| COc1ccc(C2NCc3ccccc3-n3cccc32)cc1 (centres undefined) | inconclusive: 3.98 µM [activator, single point] |  |
| Cc1cccc(-c2nc3ccccc3c(=O)n2-n2cccc2)c1 | inconclusive: 0.0224 µM [activator, full curve, poor fit] |  |
| COc1cc2c(cc1O)C[C@H]1NCCc3cc4c(c-2c31)OCO4 | inconclusive: 0.0562 µM [activator, full curve, poor fit] |  |
| Cc1ccc(N)c(N)c1 | active: 3.55 µM |  |
| Cc1cc(/C=C2\C(=O)NC(=S)N(C)C2=O)c(C)n1C1CCCCC1 |  | inactive: 1.1% |
| O=c1[nH]c(=O)n(Cc2ccccc2Cl)c(O)c1/C=C1/C=CC=N1 | inconclusive: 5.01 µM [activator, partial curve] |  |
| CCOc1ccccc1-n1c(O)c(C=Nc2ccc(N(CC)CC)cc2)c(=O)[nH]c1=O |  | inactive: -4.73% |
| CCn1c(=O)cc(OCC(=O)N2CCN(Cc3ccc4c(c3)OCO4)CC2)c2ccccc21 | inconclusive: 22.4 µM [activator, partial curve] |  |
| COC(=O)[C@]1(C)CC[C@@]2(C)CC[C@@]3(C)C4=CC=C5C(=CC(=O)C(O)=C5C)[C@@]4(C)CC[C@@]3(C)C2C1 (some centres undefined) |  | inactive: -115% |
